Biological target: T1, IL-2/IL-15 receptor on HH cells (human)
T1 chain 1: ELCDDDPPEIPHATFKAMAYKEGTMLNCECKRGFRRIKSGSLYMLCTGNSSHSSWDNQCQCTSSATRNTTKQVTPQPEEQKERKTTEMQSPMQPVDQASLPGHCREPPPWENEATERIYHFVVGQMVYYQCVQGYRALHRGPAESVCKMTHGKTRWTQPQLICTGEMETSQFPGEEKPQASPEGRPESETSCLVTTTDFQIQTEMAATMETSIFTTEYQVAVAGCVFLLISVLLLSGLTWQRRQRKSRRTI
T1 chain 2: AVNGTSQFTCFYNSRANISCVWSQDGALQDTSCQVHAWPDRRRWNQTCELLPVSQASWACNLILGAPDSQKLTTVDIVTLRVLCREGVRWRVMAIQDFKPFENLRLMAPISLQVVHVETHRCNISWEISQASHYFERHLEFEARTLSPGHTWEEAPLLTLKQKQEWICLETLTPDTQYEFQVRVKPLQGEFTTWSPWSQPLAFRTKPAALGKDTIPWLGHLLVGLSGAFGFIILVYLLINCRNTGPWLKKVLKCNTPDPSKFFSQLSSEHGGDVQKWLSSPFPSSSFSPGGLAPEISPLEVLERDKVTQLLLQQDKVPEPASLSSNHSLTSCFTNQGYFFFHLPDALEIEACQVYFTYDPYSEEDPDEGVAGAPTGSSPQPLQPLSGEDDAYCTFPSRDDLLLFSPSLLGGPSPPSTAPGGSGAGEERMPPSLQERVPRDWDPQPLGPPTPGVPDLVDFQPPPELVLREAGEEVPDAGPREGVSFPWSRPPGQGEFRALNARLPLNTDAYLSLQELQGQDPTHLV
T1 chain 3: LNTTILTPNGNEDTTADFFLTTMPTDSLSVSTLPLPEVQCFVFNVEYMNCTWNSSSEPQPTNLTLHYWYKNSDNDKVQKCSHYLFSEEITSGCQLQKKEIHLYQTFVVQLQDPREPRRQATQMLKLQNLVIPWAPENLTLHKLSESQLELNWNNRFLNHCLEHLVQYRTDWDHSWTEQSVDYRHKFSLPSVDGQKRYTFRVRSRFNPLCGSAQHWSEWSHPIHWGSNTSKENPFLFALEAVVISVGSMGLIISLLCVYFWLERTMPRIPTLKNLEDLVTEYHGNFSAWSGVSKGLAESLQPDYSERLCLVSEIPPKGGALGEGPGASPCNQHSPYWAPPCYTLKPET
Test: cell-based or functional assay

pSTAT5 EC50, HH cells: 99 pM
B1: Human uPA-ATF:Fc:hIL-15Ra:cpIL-15 (Fc fusion)
chain: SNELHQVPSNCDCLNGGTCVSNKYFSNIHWCNCPKKFGGQHCEIDKSKTCYEGNGHFYRGKASTDTMGRPCLPWNSATVLQQTYHAHRSDALQLGLGKHNYCRNPDNRRRPWCYVQVGLKPLVQECMVHDCAGGSGG[omitted - human IgG1 Fc with C220S (EU numbers)]GSITCPPPMSVEHADIWVKSYSLYSRERYICNSGFKRKAGTSSLTECVLNKATNVAHWTTPSLKCIRDGGSELEEKNIKEFLQSFVHIVQMFINGGGSNWVNVISDLKKIEDLIQSMHIDATLYTESDVHPSCKVTAMKCFLLELQVISLESGDASIHDTVENLIILANNSLSSNGNVTESGCKEC

— US20220340678A1 (MURAL ONCOLOGY, published 2022)
